Data as given in ChEMBL document CHEMBL4888484, “Replenishing the malaria drug discovery pipeline: Screening and hit evaluation of the MMV Hit Generation Library 1 (HGL1) against asexual blood stage Plasmodium falciparum ,using a nano luciferase reporter read-out” (2022).
Among all 150,000 compounds or so, about 540 (0.36%) showed an effect of 50% or more. This is one part of the list.

Test system: Plasmodium falciparum
Experiment: Primary screen in NF54 nanoGlo assay, in single point, at 2uM, 72h; a lower Z score goes with more inhibition
Format: functional, Erythrocyte
Details: timepoint 72 hour

SMILES	% Inhibition [%]	Z score
O=S(=O)(NC[C@@](O)(c1ccccc1)C1CC1)c1cccs1	1	-0.18
Cc1nnc2n1C[C@@H](NCc1cnc(C(C)(C)C)s1)CC2	-10	2.06
CC(C)c1csc(CCNC(=O)[C@@H](C)Cn2cncn2)n1	-4	0.58
O=C(Nc1ccc2c(c1)OCO2)C1CCN(c2ccc3nncn3n2)CC1	7	-0.84
CCn1nc(CO)c2c1CCN(C1CCN(c3ccc(C)c(Cl)c3)CC1)C2	-1	0.12
Oc1ccc(-n2c(-c3ccccc3)ccc2-c2ccccc2)cc1	36	-4.61
c1ccn2c(OCCc3ccc4c(c3)CCO4)nnc2c1	-4	0.66
Cc1occc1C(=O)N(C)Cc1nc2ccccc2c(=O)[nH]1	-14	2.05
COc1ccccc1CN(Cc1c(C)noc1C)C1CC1	-6	0.48
CNC(=O)c1cnc(-c2ccc(F)cc2)n(CC(=O)Nc2cc(F)ccc2F)c1=O	-23	3.5
C[C@](O)(CN1CCC(CC(N)=O)CC1)C(F)(F)F	-2	0.44
Cc1noc(C)c1C[C@H](C)NC(=O)Nc1ccc2c(c1)C(=O)NCC2	3	-0.32
CC1(C)CC(NC(=O)C2CCCN(c3ccc4nnnn4n3)C2)CCO1 (stereo not given)	4	-0.44
CCOC(=O)[C@H]1CCCN(C(=O)CCn2ccnc2)C1	-7	0.9
O=C(c1ccc(F)c(F)c1F)N1CCn2nccc2C1	-13	2.02
COc1cc(-c2cnc(OC)nc2OC)c(Cl)cn1	-8	0.8
CCOC(=O)CCn1cc(F)c(=O)[nH]c1=O	74	-6.55
Cc1cccc(Cn2nc([C@H](O)c3ccccc3)nc2CN2CCOC2=O)c1	1	-0.12
CC/C=C\CCCN1CCC[C@](CC)(C(N)=O)C1	-5	0.62
COc1cccc(-c2cc(C(=O)N3CCC[C@@]4(C3)OC(=O)c3ccccc34)n(C)n2)c1	-7	1.29
O=C(CCC(F)(F)F)N[C@H]1CCCN(C2CCCCCC2)C1	-19	2.07
CCNC(=O)[C@H]1CCCN(c2nccn(C3CC3)c2=O)C1	-16	2
CC(C)N(CC1CCC1)C(=O)NCCn1cccn1	-4	0.48
Cc1cc2c(N3CCC[C@H](Cn4ccnc4C)C3)ncnc2s1	-6	0.82
O=C1C[C@]2(C(=O)Nc3ccccc32)c2cnn(Cc3ccc(Cl)cc3)c2N1	-1	0.16
CCn1cncc1CNC(=O)c1cccc(-c2cnn(CCC(N)=O)c2)c1	-15	1.85
CC(C)N1CCN(C(=O)[C@@]23CCCC[C@H]2N(C)C(=O)CC3)CC1	-11	1.13
O=C(Cn1c2c(c3ccccc31)CCC2)NCCn1ncccc1=O	8	-1

SMILES	% Inhibition [%]	Z score
O=C(Nc1ccc2c(c1)CCC2)c1ncccc1O	-2	0.21
Cc1nocc1S(=O)(=O)N1CCC[C@H](n2ccnn2)CC1	-11	2.11
COc1cnc(C(=O)NCc2c(F)cccc2OC(F)F)nc1	-9	1.19
Cc1cccc(Cc2c(C)nc(CN(CC(C)C)C(=O)C3CCC3)[nH]c2=O)c1	0	0.02
Cc1nc(Cn2cc(C(=O)N3CC(C)(C)CC(C)(C)C3)nn2)no1	2	-0.38
COc1ccccc1-c1nc(NCCc2ccccn2)nc2nn(Cc3ccccc3)c(N)c12	2	-0.32
Cc1cc(C)cc(CCNC(=O)NCc2nccn2C)c1	2	-0.24
O=C(Cc1cccnc1)N1CCC(OCCOc2ccccc2)CC1	-16	2.52
CCNC(=O)[C@H]1CCN(C(=O)Nc2ccccc2Oc2ccccc2OC)C1	-12	1.53
O=C(NCc1ccccn1)c1ccncc1F	-20	2.62
CN(C)S(=O)(=O)Nc1c(F)cc(F)cc1Cl	-9	1.09
CC(C)N(CC1CCC1)C(=O)Cn1cnc2ccccc2c1=O	-10	1
O=C(N[C@H]1CCOC[C@@H]1OCc1ccccn1)c1cnc[nH]1	-4	0.71
CO[C@@H](C)CS(=O)(=O)Nc1sc(C)c(C)c1C#N	-6	0.8
c1cc(-c2noc(-c3cccnc3)n2)cc(-c2ccn[nH]2)c1	-16	2.05
COc1ccc(NC(=O)CCNC(=O)C2OC3OC(C)(C)OC3C3OC(C)(C)OC23)cc1 (stereo not given)	-13	1.58
COC(=O)c1ccc(C(=O)Oc2ccc(N(C)S(=O)(=O)c3ccccc3F)cc2)cc1	-3	0.43
Cc1nc2sccn2c1-c1noc(C[C@H]2CCC(F)(F)C2)n1	-11	1.09
CCOc1cc(C(=O)N(C)c2ccccc2)ncn1	-4	0.69
Cc1cnccc1NC(=O)NC1CCCCC1CO (stereo not given)	4	-0.35
CCCOc1ccc(N2C[C@@H](C(=O)Nc3ccccc3C(=O)NCc3ccco3)CC2=O)cc1	-17	2.14
C[C@H](NCc1ccc(-c2ccc(C(F)(F)F)cc2)o1)c1ccc(NS(C)(=O)=O)cc1	-5	0.76
CCc1ccc2ncn(C[C@H]3CCCOC3)c(=O)c2c1	-7	1.08
Cc1n[nH]c(C)c1[C@@H](C)CC(=O)N1CCCO1	-5	0.72
CC(C)c1noc(-c2ccn3c(CC(=O)N4CCOCC4)nnc3c2)n1	-1	0.17
COCCc1nncn1C1CCN(C(=O)c2cccc(Br)c2)CC1	-4	0.67
COCCCN/C(=N\c1cccc(C(=O)O)c1)N1CCN(c2ccccc2F)CC1	-18	1.62
